Test results: the supplement of paper PMC10600219
Counter-ions that a name gives are not always drawn. Over roughly 2,800 compounds, “cell viability relative to vehicle” has its median near 0.98; the lowest 2% begin near 0.45. Some of the results follow.

System: NCI-H2228 alectinib-DTP
Assay: cell viability relative to vehicle (fraction of vehicle); NCI-H2228 is an ALK-positive lung cancer line and DTP means drug-tolerant persister; higher = less growth inhibition
Details: 100 nM; treatment time 6 days
Outline: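 Each value is viability relative to vehicle-treated cells, measured as ATP with the CellTiter-Glo 3D Cell Viability Assay. Parental NCI-H2228 cells and drug-tolerant persisters (1000 nM targeted drug, 13 days) in 384-well plates received the 3114-agent TargetMol anti-cancer compound library at 100 nM, or DMSO, and were read 6 days later.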

SMILES | cell viability
COCC[n+]1c2c(n(Cc3cnccn3)c1C)C(=O)c1ccccc1C2=O | 0.0756
O=C(NCCO)c1cccc(-c2cc(Nc3ccc(OC(F)(F)F)cc3)ncn2)c1 | 0.954
CNCC(O)c1ccc(OC(=O)C(C)(C)C)c(OC(=O)C(C)(C)C)c1 (configuration not stated) [Dipivefrin hydrochloride] | 0.969
CCCOc1ccn2c(C(C)=O)cc(-c3ccccc3S(C)(=O)=O)c2c1 | 0.959
O=C1c2ccccc2C(=O)c2c1ccc(O)c2O [Alizarin] | 1.24
Cc1nc(=O)c2cc(CN(C)c3ccc(C(=O)N[C@@H](CCC(=O)O)C(=O)O)s3)ccc2[nH]1 [Raltitrexed] | 0.688
CN(C)C[C@@H]1CCn2cc(c3ccccc32)C2=C(C(=O)NC2=O)c2cn(c3ccccc23)CCO1 [Ruboxistaurin hydrochloride] | 1.02
CS(=O)(=O)N1CCc2c(-c3cnc(N)nc3)nc(N3CCOCC3)nc21 | 0.755
O=c1oc2ccccc2c(O)c1Cc1c(O)c2ccccc2oc1=O [Dicumarol] | 0.905
C=C1C[C@@]23CC[C@H]4[C@@](C)(CCC[C@@]4(C)C(=O)O)[C@@H]2CC[C@]1(O[C@@H]1O[C@@H](CO)[C@@H](O)[C@H](O)[C@@H]1O[C@@H]1O[C@@H](CO)[C@@H](O)[C@H](O)[C@@H]1O)C3 [steviolbioside] | 1.02
CC[C@H](C)C(=O)O[C@H]1CCC=C2C=C[C@H](C)[C@H](CC[C@@H]3C[C@@H](O)CC(=O)O3)[C@H]21 [Mevastatin] | 1.12
O=C(/C=C/c1ccc(O)c(O)c1)OCCc1ccccc1 [Caffeic Acid Phenethyl Ester] | 0.995
C=CC(=O)Nc1cccc(Oc2nc(Nc3ccc(N4CCN(C)CC4)cc3OC)ncc2Cl)c1 | 1.09
O=c1cc(-c2ccc(O[C@@H]3O[C@H](CO)[C@@H](O)[C@H](O)[C@H]3O)cc2)oc2cc(O)c([C@@H]3O[C@H](CO)[C@@H](O)[C@H](O)[C@H]3O[C@@H]3OC[C@H](O)[C@H](O)[C@H]3O)c(O)c12 [Vaccarin] | 0.919
NCC(O)CC(=O)O (configuration not stated) [4-Amino-3-hydroxybutyric Acid] | 1.13
CC(=O)OCC(CCn1cnc2cnc(N)nc21)COC(C)=O [Famciclovir] | 0.957
NNc1nncc2ccccc12 [Hydralazine hydrochloride] | 0.782
NC(=O)c1ccccc1Nc1ccnc(Nc2cccc(O)c2)n1 | 0.931
C[C@H](CCC(=O)O)[C@H]1CC[C@H]2[C@@H]3[C@H](O)C[C@@H]4C[C@H](O)CC[C@]4(C)[C@H]3CC[C@]12C [Chenodeoxycholic acid] | 1.07
CN1CCN(c2c(F)cc3c(=O)c(C(=O)O)cn(CCF)c3c2F)CC1 [Fleroxacin] | 0.9
O=C1C[C@@H](c2ccc(O)cc2)Oc2cc(O)cc(O)c21 [Naringenin] | 0.983
c1ccc([C@H]2CN3CCSC3=N2)cc1 [Levamisole hydrochloride] | 0.884
COC(=O)C1=CO[C@@H](O[C@@H]2O[C@H](CO)[C@@H](O)[C@H](O)[C@H]2O)[C@H]2[C@@H]1[C@H](O)C[C@]2(C)O [Shanzhiside methyl ester] | 0.951
O=S(=O)(O)c1cc(O)ccc1O [Ethamsylate] | 1.2

SMILES | cell viability
Cc1ccc(C(C)C)cc1O [Carvacrol] | 1.03
CCOC(=O)[C@H](CCc1ccccc1)N[C@H]1CS[C@H](c2cccs2)CN(CC(=O)O)C1=O [Temocapril HCl] | 1.05
O=C1OCCN1/N=C/c1ccc([N+](=O)[O-])o1 [Furazolidone] | 1.1
COc1ccc(C2CNC(=O)C2)cc1OC1CCCC1 (configuration not stated) [Rolipram] | 1
OC[C@H]1O[C@@H](Oc2cc(O)cc(/C=C/c3ccc(O)cc3)c2)[C@H](O)[C@@H](O)[C@@H]1O [Polydatin] | 1.01
O=c1c(-c2ccc(O)cc2)coc2cc(O[C@@H]3O[C@H](CO)[C@@H](O)[C@H](O)[C@H]3O)ccc12 [Daidzin] | 0.973
CC(=O)Nc1nc(C)c(-c2ccc(Cl)c(S(=O)(=O)NCCO)c2)s1 | 0.889
CCn1cc(-c2cccc(C(F)(F)F)c2)c2sc(C(=N)NC3CCS(=O)(=O)CC3)cc2c1=O | 1.06
COc1ccc2[nH]c(-c3cccc(F)c3)cc(=O)c2c1OP(=O)(O)O | 0.523
C[C@H]1C[C@@H]2[C@H]([C@@H](O)C[C@@]3(C)[C@H]2CC[C@]3(O)C(=O)CO)[C@@]2(C)C=CC(=O)C=C12 [Methylprednisolone] | 0.704
COc1cc([C@@H]2c3cc4c(cc3[C@@H](O[C@@H]3O[C@@H]5CO[C@@H](C)O[C@H]5[C@H](O)[C@H]3O)[C@H]3COC(=O)[C@H]23)OCO4)cc(OC)c1O [Etoposide] | 0.97
C[C@@]12C[C@H](c3ccoc3)O[C@@]13C[C@H](OC3=O)[C@H]1[C@H]2C[C@@H]2C[C@H]1C(=O)O2 [Diosbulbin B] | 0.979
COc1cc(/C=C(\C#N)C(=O)Nc2nnc(C(F)(F)F)s2)ccc1OCc1ccc(C(F)(F)F)cc1C(F)(F)F | 1
CNS(=O)(=O)C[C@H]1CC[C@H](N(C)c2[nH]cnc3nccc2-3)CC1 [Oclacitinib] | 0.937
CN(C)C(=S)NN=C(c1ccccn1)c1ccccn1 | 0.45
COc1ccccc1OCC(O)CN1CCN(CC(=O)Nc2c(C)cccc2C)CC1 (configuration not stated) [Ranolazine] | 1.1
O=C1c2ccc(Nc3ccc(F)cc3F)cc2CCc2ccc(OC[C@H](O)CO)cc21 [Skepinone-L] | 1.16
NC(=O)C(c1ccccc1)(c1ccccc1)[C@@H]1CCN(CCc2ccc3c(c2)CCO3)C1 [Darifenacin HBr] | 0.993
CCCNCC(O)COc1ccccc1C(=O)CCc1ccccc1 (configuration not stated) [Propafenone] | 0.933
CCn1c(=O)c(-c2cc[nH]n2)cc2c(C)nc(N)nc21 [Voxtalisib] | 0.86
COc1nccc(-c2c(-c3ccc(F)cc3)ncn2C2CCNCC2)n1 | 1.04
COc1cc2c(cc1-c1c(C)noc1C)ncc1[nH]c(=O)n([C@H](C)c3ccccn3)c12 | 0.896
CN(C)c1nc(N(C)C)nc(N(C)C)n1 [Altretamine] | 1.1
